Data on one substance can be found in paper PMC7694937.

By UniProt entry, the sequences of proteins in these tests, tags left out.
UniProt P49023: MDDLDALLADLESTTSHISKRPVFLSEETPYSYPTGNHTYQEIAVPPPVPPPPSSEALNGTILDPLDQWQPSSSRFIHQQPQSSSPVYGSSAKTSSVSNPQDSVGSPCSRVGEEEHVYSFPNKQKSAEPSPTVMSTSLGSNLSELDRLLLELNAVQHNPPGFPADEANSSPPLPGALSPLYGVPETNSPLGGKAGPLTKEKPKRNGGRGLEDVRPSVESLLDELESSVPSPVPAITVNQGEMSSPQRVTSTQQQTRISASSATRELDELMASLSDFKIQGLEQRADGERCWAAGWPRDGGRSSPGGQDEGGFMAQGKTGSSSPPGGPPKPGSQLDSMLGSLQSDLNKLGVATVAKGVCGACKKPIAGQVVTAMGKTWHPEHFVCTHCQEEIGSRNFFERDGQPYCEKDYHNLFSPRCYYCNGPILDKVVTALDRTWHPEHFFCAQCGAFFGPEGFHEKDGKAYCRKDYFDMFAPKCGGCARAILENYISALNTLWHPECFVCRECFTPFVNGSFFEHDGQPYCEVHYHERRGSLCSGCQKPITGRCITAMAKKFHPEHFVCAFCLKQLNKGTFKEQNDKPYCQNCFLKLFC

Holding throughout (experiment): co-IP; HEK293T cells co-transfected with Flag- and HA-tagged plasmids; lysis in 50 mM Tris-HCl pH 7.5, 300 mM NaCl, 1% Triton-X, 5 mM EDTA, 10% glycerol; IP with anti-Flag antibody and Protein-G Sepharose, immunoblot with anti-HA and anti-Flag; in some panels cells treated with DMSO or ATP (5 mM) for 2 h; Fig. 6d-g shown as pairs of IPs whose antibodies the legend does not name
In general terms: In western blotting, separated proteins are transferred to a membrane and probed.

One test deals with T1, Flag-P2X7R(32–595) (UniProt Q99572).
T1 sequence: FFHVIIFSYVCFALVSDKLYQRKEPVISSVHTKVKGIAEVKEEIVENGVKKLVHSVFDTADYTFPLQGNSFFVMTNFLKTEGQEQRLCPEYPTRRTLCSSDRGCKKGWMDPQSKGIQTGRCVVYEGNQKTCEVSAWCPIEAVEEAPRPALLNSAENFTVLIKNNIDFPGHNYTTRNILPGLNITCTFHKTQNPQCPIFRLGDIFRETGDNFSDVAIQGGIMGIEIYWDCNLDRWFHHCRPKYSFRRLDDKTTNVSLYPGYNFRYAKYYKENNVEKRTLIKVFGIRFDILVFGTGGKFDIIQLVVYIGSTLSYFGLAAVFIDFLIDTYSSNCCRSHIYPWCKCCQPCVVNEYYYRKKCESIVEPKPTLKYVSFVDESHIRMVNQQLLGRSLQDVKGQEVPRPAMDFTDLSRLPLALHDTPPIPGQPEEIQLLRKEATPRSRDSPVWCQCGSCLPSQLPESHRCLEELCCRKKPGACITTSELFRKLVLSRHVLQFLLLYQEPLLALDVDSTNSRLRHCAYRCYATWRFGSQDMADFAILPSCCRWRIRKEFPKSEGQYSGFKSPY

In the next test the target is T2, Flag-P2X7R(36–595) (UniProt Q99572).
T2 sequence: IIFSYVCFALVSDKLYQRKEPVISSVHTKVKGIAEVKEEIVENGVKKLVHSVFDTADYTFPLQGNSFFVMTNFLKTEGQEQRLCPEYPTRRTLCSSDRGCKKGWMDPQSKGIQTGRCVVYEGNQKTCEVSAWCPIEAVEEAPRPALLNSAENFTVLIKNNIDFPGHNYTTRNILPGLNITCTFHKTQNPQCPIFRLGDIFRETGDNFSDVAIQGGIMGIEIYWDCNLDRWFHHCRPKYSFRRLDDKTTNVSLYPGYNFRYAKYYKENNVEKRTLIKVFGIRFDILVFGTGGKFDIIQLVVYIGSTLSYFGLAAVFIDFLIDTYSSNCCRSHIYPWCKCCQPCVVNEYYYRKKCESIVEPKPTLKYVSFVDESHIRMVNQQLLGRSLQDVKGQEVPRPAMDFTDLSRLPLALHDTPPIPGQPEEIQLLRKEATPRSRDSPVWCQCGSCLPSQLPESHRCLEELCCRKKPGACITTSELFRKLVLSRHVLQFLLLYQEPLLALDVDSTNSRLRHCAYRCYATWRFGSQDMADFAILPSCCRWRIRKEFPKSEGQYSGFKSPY

For the next test, the target named is T3, Flag-USP13 (human) (UniProt Q92995).
T3 sequence: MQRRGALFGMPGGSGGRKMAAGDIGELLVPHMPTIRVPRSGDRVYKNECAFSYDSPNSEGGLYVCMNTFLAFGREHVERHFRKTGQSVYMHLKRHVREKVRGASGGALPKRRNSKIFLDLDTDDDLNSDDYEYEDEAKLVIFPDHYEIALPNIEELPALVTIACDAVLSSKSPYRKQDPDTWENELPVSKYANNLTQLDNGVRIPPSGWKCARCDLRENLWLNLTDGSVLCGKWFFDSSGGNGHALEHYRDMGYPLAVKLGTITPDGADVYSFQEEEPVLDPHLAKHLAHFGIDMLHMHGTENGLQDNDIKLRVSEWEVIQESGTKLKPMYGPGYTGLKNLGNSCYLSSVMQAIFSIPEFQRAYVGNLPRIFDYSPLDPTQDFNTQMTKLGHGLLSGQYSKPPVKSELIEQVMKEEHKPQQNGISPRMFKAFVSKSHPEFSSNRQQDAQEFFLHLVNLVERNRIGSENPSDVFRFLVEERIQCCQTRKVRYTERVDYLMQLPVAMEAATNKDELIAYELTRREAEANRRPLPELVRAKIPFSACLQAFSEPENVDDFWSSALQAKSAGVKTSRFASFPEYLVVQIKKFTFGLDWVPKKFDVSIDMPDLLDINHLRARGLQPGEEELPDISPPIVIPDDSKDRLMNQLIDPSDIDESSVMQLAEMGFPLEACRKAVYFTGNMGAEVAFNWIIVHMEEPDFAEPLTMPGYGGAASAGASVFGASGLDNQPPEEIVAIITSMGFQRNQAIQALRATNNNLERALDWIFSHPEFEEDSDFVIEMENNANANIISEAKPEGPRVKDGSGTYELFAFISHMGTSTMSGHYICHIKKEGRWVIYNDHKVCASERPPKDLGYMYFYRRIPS

Test [1] deals with T4, Flag-USP13(625–863) (human) (UniProt Q92995).
T4 sequence: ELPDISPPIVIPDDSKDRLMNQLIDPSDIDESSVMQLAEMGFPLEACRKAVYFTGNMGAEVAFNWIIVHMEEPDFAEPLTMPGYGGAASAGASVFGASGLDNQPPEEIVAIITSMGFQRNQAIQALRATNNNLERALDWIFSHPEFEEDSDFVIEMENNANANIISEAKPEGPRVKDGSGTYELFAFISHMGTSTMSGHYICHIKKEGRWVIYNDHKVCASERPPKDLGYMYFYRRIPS

No constants are given. Whether binding was seen depends on the method and setting. In cells and extracts the contact can be indirect. Some entries that bind do so weakly or less than the wild type. Where a sequence is shown, tags or fusion partners need not be part of it.

As to HA-Paxillin (from UniProt P49023 1-591), the binding result with Flag-P2X7R(32–595) is reported as “no binding”; with Flag-P2X7R(36–595), “no binding”; in the test with Flag-USP13 (human) it was “binds”; in test [1] it was “no binding”.
